To fix the notation:
B1: chr2:187371472:187371473:+_ENSG00000065548_ENST00000337859|hu_hu|motif|central (ssRNA)
RNA: GGGAGUUCUACAGUCCGACGAUCACUGGCUACAGUAAUACCUGUUUCAUCUACAUCUCUUGGGAUGUACAGGCUUAAAUCGGUGUCAUUUACACUCACUGAAUCAUCAACCUCAUCACCACCUGUUCCCUGGGUGUAGCGGGUCAACAGAGGAUUGAGCAUCA
B2: chr16:33500690:33500691:+_ENSMUSG00000022811_ENSMUST00000165418|mus_hu|FALSE|FALSE (ssRNA)
RNA: GGGAGUUCUACAGUCCGACGAUCAACAAGAAAUGUUUGUCUGCUUUAGUUUGUUUCCUACCAAAGUUUAAGUGAAAAAAGGAAACACGGUUUUUAUUUGCAGAAUAUAGCAAAACAACUGGAAAAUUAUUUCCCUGAAAUAAACAACAGAGGAUUGAGCAUCA
B3: chr12:104022963:104022964:-_ENSMUSG00000041702_ENSMUST00000045652|mus_mus|FALSE|FALSE (ssRNA)
RNA: GGGAGUUCUACAGUCCGACGAUCAAAAUACAUCUUAGUGUGCAACCCAAUGCACAUGGAAACUGGUAGAUGAUAGGUAAAAUGCAAAAAGUAUGAAAAUACAGUCCUUUAAAUGUAGCAAUAAAGUAGUUUAACACACUGUUACAACAGAGGAUUGAGCAUCA
B4: chrX:35777509:35777510:-_ENSMUSG00000016534_ENSMUST00000061755|mus_mus|FALSE|FALSE (ssRNA)
RNA: GGGAGUUCUACAGUCCGACGAUCCUGUCCUUUUGUCACAUUAAAAGGUUGCACCUUUAGGUUAAAGGUGUUGAUCUGAAACGCUCUAGACACAGAAAGCACCUGCUCUUUGUUGCACAUAUAAGAACUUCCCAGAGGGGCAUCCAACAGAGGAUUGAGCAUCA
B5: chr15:38777322:38777323:+_ENSG00000171262_ENST00000397609|hu_mus|FALSE|FALSE (ssRNA)
RNA: GGGAGUUCUACAGUCCGACGAUCUCAACCUAUUUUUCAAAAAGGACAACUGACUAUGCACAUAUAUUAGACACUUCCUCUAUUUUGUAAAAUAGAAUUAACAAUACAGGGCAGAUCCACAGGUAUACAAAUGACAUGAGAGUCCAACAGAGGAUUGAGCAUCA
B6: chr3:57646030:57646031:-_ENSMUSG00000027805_ENSMUST00000066882|mus_mus|motif|central (ssRNA)
RNA: GGGAGUUCUACAGUCCGACGAUCUUAAAUCUGUACAUUAUCCACAAUGCCCAAACAAUAGAAGCAAUACUAGAAUGUCCCGGAGGUAGUGCCAUUCGAAAGGAAAUCCAUCUCACAAUAGCAACAGUUCAUUUUAACAAUAGUCAACAGAGGAUUGAGCAUCA
B7: chr3:8561242:8561243:+_ENSMUSG00000027500_ENSMUST00000029002|mus_mus|motif|central (ssRNA)
RNA: GGGAGUUCUACAGUCCGACGAUCAGCAACCAGCUCACAGUCUCCAAGUGGAAAAACGUUCAGUAGCAUUAUGUGCUUGUACGGCAGGCAAAAGCUUAAAAUGAACAUCAUCACCCAUGGCACCCACAGAUAAGCCACCCGACACAACAGAGGAUUGAGCAUCA
B8: chr1:244855233:244855234:+_ENSG00000121644_ENST00000302550|hu_mus|motif|central (ssRNA)
RNA: GGGAGUUCUACAGUCCGACGAUCCAUCAGAUGGUAGGCGUUGCCCUUAUACUCUUUCCCCAGUUCUUCUACAAUUUUCUCGGUAUCAUCUUCUAGAAAGUCCGUACUUCCUAGAACAACAGCUUCUUUAAAUUUAAAUGUUUCCAACAGAGGAUUGAGCAUCA
B9: chr9:31209820:31209821:+_ENSMUSG00000042185_ENSMUST00000086167|mus_mus|FALSE|FALSE (ssRNA)
RNA: GGGAGUUCUACAGUCCGACGAUCAUUUUCCUUACAGAAGGCCUGGUCUUUGGUUUCCAGCCACAGGUGGAAGAGAGCAGCUAAUUCCUUUUCAUUAUCUUGAGAUUGACCAAGCAAUUUCCACUGCUGGGUUUUCUCUUUGAACAACAGAGGAUUGAGCAUCA
B10: chr1:163117127:163117128:-_ENSG00000143248_ENST00000313961|hu_mus|hu_hu_hu_mus_False|88_98 (ssRNA)
RNA: GGGAGUUCUACAGUCCGACGAUCUGCUACAAAGGAUGGAGGAAAUAACUCACAGGAACUUUUGGAAGCCUGACCAGAUGACUACUUGAUUAGCUCCUUAUAAAAUUCAGAGCGCACAAAGCGGGGCAGAGAAUCCUUCUCCAUCAACAGAGGAUUGAGCAUCA
B11: chr13:104551264:104551265:-_ENSMUSG00000032621_ENSMUST00000074616|mus_hu|motif|central (ssRNA)
RNA: GGGAGUUCUACAGUCCGACGAUCUCCAAGUGUUGCAAUGUUGGGGUCUAGUGCUGCUGCUGGUAUAGCUCCCAAACUGCGGAGUGAAACACCAAGAGUAGUCAAAGGAUUUGGGGUCGGUAUUGGAAGCAAUCCUGCACCAGGCAACAGAGGAUUGAGCAUCA
B12: chr2:217002811:217002812:+_ENSG00000079246_ENST00000392132|hu_mus|motif|central (ssRNA)
RNA: GGGAGUUCUACAGUCCGACGAUCCAGCGAGGAAAACAUGUAUUGCCGCAAGUCUUCCAUGAAAGGCAGCUGCACAUAAACGGAACACUCAUAGGCGUCCUUAAUGUAAGGGAAGGCUACACCAACUUGAGGAUUAGAUCUUUUCAACAGAGGAUUGAGCAUCA
B13: 68156407_68156527_705_CDS_ENSG00000072736_ENST00000346183|human|control|control (ssRNA)
RNA: GGGAGUUCUACAGUCCGACGAUCGGAUCUAGGAGAGUGGCAAGGAGAUUGCCUGGGUGAUAAUGAGUGUCCAAGUCCAUACUGUUGAUGCCAAGUUUCUUCUCCAGGGCAGCCCCCUGGAGAGCCACCAGGAGAAGUCAGAGGCAACAGAGGAUUGAGCAUCA
B14: chr11:18503389:18503390:-_ENSG00000074319_ENST00000251968|hu_hu|motif|central (ssRNA)
RNA: GGGAGUUCUACAGUCCGACGAUCAUUUUCCAUUUUUUCCAGAGCAGAACUGAGUUCUUCAUCCUUCUUUUUCAAAAGUUCGGUGUUUUUAUCAACCUCGGCUACUUCUUGAUCUAAACGGGUAACCAUCUCUUCCAGUUUCUGCAACAGAGGAUUGAGCAUCA
B15: 110832895_110833015_3381_3pUTR_ENSG00000164211_ENST00000296632|human|control|control (ssRNA)
RNA: GGGAGUUCUACAGUCCGACGAUCCAACUGCCAUAUCAAAAGUUACUUAUCUUUGAAGGAAAAUAUUUGCUGGCAAUAAUUUUAUCUCAUUGACAACUGAUUUAUAUCUAAAGUUUAGAUGUCCUAUUUAUCAAGCAAUGAAGGCAACAGAGGAUUGAGCAUCA
B16: chr5:24309113:24309114:-_ENSMUSG00000028945_ENSMUST00000030787|mus_mus|motif|central (ssRNA)
RNA: GGGAGUUCUACAGUCCGACGAUCUUUUAUUUACAAGUAUACAUUUAACACAAUGAAAUAAACACUGAUAUAUUGAAGCCGGGUUAAUAGUAGUGUAACAUGUGUAUCAUUUUGAUGAUUACAUUAUUUUAAACAACAAACUACCAACAGAGGAUUGAGCAUCA
B17: chr2:168013125:168013126:-_ENSMUSG00000051149_ENSMUST00000088001|mus_mus|FALSE|FALSE (ssRNA)
RNA: GGGAGUUCUACAGUCCGACGAUCCUCCCAUGUAGUGUUUUUCAAAUAAAAGUCAUUAGGUUCAAACUGUUUAAAAUCUUCUAUAUGUUCUUUACAGUAUUCCAACCCAAUGUCACUAAGUAUUUUUUUCACAGUUUUCCGGGCCAACAGAGGAUUGAGCAUCA
B18: chr1:224585847:224585848:-_ENSG00000162923_ENST00000295024|hu_mus|motif|central (ssRNA)
RNA: GGGAGUUCUACAGUCCGACGAUCUCCAAAACACGAGUGGAUUGUAUAAAACCCUUGGGUAACACCUUGAUAUUUCCUUACGGAAACUCUGUCUUGCAAGUCCCAUAAAUGAACUCCCUGAGUUGCUACAUUUAACAAAGCUAACAACAGAGGAUUGAGCAUCA
B19: 51937858_51937978_3740_3pUTR_ENSMUSG00000020349_ENSMUST00000020608|mouse|control|control (ssRNA)
RNA: GGGAGUUCUACAGUCCGACGAUCUUAUUUUUUGUUUGAGUGGUUUGCCUGCAGGCAUGUACACCACAUGUGUGUCUGAUGCCGUGGAGACCAGAAGAGAGUAUCAGGGCCUCUGGAGUCGAAGUUAUAGGCAGCUGGGGGCUACAACAGAGGAUUGAGCAUCA
B20: 111883933_111885604_1727_CDS_ENSG00000148700_ENST00000277900|human|control|control (ssRNA)
RNA: GGGAGUUCUACAGUCCGACGAUCUGAGUCUUCUGCUUUCAUCCACGUGAUUUUGGUUCGGGGACUGGUUUCUCCGUUCCGAGACUCCUCAGGCACAUUCACUUUCAUGUAAGUAUUUGGUGAGUUCAGCCAUCUUGUUUUUUCCAACAGAGGAUUGAGCAUCA
B21: chr4:40912178:40912179:+_ENSMUSG00000028419_ENSMUST00000030128|mus_mus|motif|central (ssRNA)
RNA: GGGAGUUCUACAGUCCGACGAUCACAGUUCAUUCCAACAGUAGAUCGUGUAAUGACUUGCUCACAUGACACAACAAAAUCGGUCAAAAGAGGCCAUGACUUAAACCCAUCUACAAUACCACAACAGACAAGGGUUCUGAAGCACAACAGAGGAUUGAGCAUCA
B22: chr7:135612270:135612271:-_ENSG00000105887_ENST00000393085|hu_mus|hu_hu_hu_mus_False|18_98 (ssRNA)
RNA: GGGAGUUCUACAGUCCGACGAUCGUUUUUUUCUGAGUAAGUAUUACGUACUUCAGUGGAAAACAAAACUUAACCUUUUAUUAAUGCGUGUUGUACCAAAAGCAGACAUUUUAGCUUGCUUCCUUUAAAAAUAUUAACAUUAAGCAACAGAGGAUUGAGCAUCA

Some of the results follow.

For the experiment, the target named is T1, UNK ZnF1-3 (human, UniProt Q9C0B0 31-174).
T1 sequence: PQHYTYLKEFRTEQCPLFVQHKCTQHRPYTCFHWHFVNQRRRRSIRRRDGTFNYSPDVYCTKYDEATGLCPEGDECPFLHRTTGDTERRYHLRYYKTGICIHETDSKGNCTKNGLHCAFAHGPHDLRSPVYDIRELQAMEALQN
As to the kind of experiment: nsRBNS (natural sequence RNA bind-n-seq); RBNS binding buffer (assumed for nsRBNS): 25 mM Tris pH 7.5, 150 mM KCl, 3 mM MgCl2, 0.01% Triton X-100, 500 ug/ml BSA, 20 U/ml SUPERase-In, 4 C; UNK is unkempt and MSI1 is Musashi-1; names of the RNAs are library labels; protein concentration not given here; high values mean tight binding.
The molecule B1 registered a binding signal of 0.627 enrichment R. As for B2, the binding signal worked out at 0.917 enrichment R.

As for B3, the binding signal was determined as 0.706 enrichment R. For B4 the value was 1.25 enrichment R; for B5, 0.788 enrichment R; for B6, 1.15 enrichment R. For B7 the value was 1.46 enrichment R; for B8, 1.2 enrichment R; for B9, 0.67 enrichment R. To B10 belongs 2.05 enrichment R; to B11, 1.29 enrichment R.

B12 gave a binding signal of 0.976 enrichment R.

B13 yielded a binding signal of 0.69 enrichment R. For B14 the value was 0.412 enrichment R; for B15, 1.03 enrichment R.

B16: the binding signal amounted to 0.68 enrichment R.

Molecule B17 gave a binding signal of 0.621 enrichment R.

B18 had a binding signal of 0.931 enrichment R. To B19 belongs 1.5 enrichment R; to B20, 0.35 enrichment R. For B21 the value was 1.4 enrichment R; for B22, 0.489 enrichment R.

The record behind these values is publication PMC12136788.
